In publication PMC5007331, “YTHDF2 destabilizes m^6A-containing RNA through direct recruitment of the CCR4–NOT deadenylase complex” (Nature Communications, 2016):
Results are given in words; binding and its absence hold for the method and conditions named. For part of these data: Binding seen in cells or lysates may run through a third protein. Some binding calls cover weakened binding; strength is not graded here. Sequences can lack the tags named with a protein.

Protein sequences, listed by entry. Tags and fused reporters are not part of them. Lines headed by an entry give the natural chain unless they say otherwise; changes in a name come on top. Residues count along the entry.
UniProt A5YKK6: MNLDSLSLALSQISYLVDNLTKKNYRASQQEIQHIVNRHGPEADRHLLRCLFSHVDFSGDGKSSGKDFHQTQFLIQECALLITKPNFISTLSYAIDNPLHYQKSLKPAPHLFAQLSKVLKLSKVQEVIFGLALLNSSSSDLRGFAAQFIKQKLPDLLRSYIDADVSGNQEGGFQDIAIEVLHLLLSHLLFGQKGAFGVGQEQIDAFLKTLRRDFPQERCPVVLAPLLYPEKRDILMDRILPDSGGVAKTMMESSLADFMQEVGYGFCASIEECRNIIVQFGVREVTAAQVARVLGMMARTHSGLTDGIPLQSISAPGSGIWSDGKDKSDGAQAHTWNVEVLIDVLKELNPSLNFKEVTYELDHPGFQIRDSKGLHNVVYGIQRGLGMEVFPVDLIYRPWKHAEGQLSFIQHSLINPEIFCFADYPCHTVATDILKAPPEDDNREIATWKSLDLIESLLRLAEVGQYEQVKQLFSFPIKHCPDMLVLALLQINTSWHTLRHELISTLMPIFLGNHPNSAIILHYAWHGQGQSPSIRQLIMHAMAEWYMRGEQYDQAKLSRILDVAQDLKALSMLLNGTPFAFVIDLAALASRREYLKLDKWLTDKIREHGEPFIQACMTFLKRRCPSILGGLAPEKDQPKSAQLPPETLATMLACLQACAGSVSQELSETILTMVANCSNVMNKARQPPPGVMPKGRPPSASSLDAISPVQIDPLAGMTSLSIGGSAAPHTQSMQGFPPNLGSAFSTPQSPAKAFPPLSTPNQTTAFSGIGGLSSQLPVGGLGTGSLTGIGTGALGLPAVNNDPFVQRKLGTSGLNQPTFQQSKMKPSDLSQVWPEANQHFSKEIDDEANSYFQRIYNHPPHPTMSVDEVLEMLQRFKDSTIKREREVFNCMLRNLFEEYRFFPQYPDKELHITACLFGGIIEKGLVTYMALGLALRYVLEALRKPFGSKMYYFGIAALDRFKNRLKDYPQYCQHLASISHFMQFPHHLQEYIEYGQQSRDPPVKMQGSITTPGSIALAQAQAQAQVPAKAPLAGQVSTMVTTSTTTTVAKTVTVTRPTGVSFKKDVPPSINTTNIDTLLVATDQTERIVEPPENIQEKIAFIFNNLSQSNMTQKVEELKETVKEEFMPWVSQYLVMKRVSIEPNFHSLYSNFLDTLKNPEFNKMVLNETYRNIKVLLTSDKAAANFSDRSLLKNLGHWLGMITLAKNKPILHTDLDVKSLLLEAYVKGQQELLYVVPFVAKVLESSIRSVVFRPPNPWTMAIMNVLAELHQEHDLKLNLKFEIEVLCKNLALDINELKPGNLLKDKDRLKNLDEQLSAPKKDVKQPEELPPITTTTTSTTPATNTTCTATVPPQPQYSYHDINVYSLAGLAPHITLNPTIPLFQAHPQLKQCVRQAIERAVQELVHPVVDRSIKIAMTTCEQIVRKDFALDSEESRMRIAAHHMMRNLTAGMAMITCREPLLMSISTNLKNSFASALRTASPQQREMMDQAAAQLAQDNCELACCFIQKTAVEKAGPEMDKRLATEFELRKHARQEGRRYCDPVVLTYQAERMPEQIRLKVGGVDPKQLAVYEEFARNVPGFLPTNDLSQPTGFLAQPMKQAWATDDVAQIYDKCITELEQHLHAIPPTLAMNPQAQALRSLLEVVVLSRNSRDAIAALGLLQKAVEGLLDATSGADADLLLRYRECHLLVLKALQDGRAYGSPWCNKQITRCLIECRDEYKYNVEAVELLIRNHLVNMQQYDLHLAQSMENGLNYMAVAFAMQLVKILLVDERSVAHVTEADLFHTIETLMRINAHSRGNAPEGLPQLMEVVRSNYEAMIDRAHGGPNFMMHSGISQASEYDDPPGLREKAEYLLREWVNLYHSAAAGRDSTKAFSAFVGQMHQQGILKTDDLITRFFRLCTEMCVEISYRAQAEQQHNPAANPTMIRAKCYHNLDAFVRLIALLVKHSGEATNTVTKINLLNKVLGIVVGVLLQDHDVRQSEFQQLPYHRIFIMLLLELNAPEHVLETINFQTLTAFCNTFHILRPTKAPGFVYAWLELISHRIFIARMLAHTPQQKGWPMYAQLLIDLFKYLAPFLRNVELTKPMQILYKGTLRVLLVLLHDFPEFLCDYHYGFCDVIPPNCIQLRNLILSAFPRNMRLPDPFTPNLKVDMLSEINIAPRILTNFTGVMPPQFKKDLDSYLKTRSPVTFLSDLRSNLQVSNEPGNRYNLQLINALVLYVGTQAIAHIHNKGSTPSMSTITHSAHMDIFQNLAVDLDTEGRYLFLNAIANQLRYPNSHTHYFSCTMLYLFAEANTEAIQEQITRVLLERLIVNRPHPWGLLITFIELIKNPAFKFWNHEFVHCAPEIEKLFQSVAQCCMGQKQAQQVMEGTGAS
CNOT1 SH domain-GST fusion protein (aa 1842-2376): residues 1842-2376 of A5YKK6
UniProt Q9UIV1: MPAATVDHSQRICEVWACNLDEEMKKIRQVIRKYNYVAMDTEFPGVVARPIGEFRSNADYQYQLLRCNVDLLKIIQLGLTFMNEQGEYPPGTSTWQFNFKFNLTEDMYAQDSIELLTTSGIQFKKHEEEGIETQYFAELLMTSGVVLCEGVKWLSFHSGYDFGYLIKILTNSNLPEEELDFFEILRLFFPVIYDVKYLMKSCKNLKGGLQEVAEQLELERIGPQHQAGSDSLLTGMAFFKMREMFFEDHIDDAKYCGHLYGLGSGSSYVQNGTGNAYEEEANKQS

What was measured:
[1] = molecular target: T1, FLAG-tagged YTHDF2 stably expressed in HeLa-tTA cells (human) (UniProt Q9Y5A9); assay: co-IP; HeLa-tTA cells stably expressing FLAG-tagged YTHDF2; FLAG-M2 antibody or mouse IgG on Dynabeads Protein G, 3 h at 4 °C; blot for endogenous CNOT1
T1 sequence: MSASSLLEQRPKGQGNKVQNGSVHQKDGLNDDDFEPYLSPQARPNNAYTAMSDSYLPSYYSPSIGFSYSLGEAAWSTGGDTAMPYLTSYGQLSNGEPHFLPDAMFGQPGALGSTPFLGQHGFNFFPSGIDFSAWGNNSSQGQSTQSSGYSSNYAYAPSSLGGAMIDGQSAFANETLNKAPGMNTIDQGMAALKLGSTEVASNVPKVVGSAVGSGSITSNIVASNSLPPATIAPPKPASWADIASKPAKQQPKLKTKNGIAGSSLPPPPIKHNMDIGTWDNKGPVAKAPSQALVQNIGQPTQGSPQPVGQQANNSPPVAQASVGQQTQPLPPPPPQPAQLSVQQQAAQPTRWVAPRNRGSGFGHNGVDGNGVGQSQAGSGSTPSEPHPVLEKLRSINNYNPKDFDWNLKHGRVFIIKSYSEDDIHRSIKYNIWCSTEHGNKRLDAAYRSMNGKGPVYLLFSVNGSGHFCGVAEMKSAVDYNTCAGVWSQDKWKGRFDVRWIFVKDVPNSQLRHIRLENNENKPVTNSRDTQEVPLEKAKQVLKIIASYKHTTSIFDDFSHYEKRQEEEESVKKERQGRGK

[2] = molecular target: T2, λN-FLAG-YTHDF2 (human) (UniProt Q9Y5A9); assay: co-IP; HEK 293 cells co-transfected; lysate (50 mM Tris-HCl pH 7.4, 150 mM NaCl, 1 mM EDTA, 1 mM DTT, 0.5% NP-40) with RNase A; anti-FLAG affinity gel, 3 h at 4 °C; immunoblot
T2 sequence: T1 sequence

[3] = molecular target: T3, λN-FLAG-YTHDF2 (human), Q9Y5A9; assay: as above; settings: remark: other sources report otherwise
T3 chain: T1 sequence

[4] = molecular target: CNOT1 SH domain-GST fusion protein (aa 1842-2376) (human) (UniProt A5YKK6); assay: pull-down; GST pull-down: 40 pmol YTHDF2 fragment with 40 pmol GST or GST-CNOT1 (aa 1842-2376) on glutathione Sepharose-4B; 20 mM HEPES pH 7.4, 200 mM NaCl, 0.1% Tween-20; 2 h at 4 °C; SDS-PAGE and Coomassie Blue staining; both purified

Molecule: endogenous CNOT1 (from UniProt A5YKK6 1-2376)
- binding [1]: binds

Molecule: CAF1-141/147 (M141K and L147K double mutant) (from UniProt Q9UIV1 1-285) (enzyme)
- binding [2]: no binding

Molecule: HA-tagged CNOT1 (from UniProt A5YKK6 1-2376)
- binding [2]: binds

Molecule: V5-tagged DCP2 (from UniProt Q8IU60 1-420) (enzyme)
- binding [2]: no binding

B1: V5-tagged PAN2, Q504Q3 1-1202 (enzyme)
chain: MNFEGLDPGLAEYAPAMHSALDPVLDAHLNPSLLQNVELDPEGVALEALPVQESVHIMEGVYSELHSVVAEVGVPVSVSHFDLHEEMLWVGSHGGHATSFFGPALERYSSFQVNGSDDIRQIQSLENGILFLTKNNLKYMARGGLIIFDYLLDENEDMHSLLLTDSSTLLVGGLQNHIIEIDLNTVQETQKYAVETPGVTIMRQTNRFFFCGHTSGKVSLRDLRTFKVEHEFDAFSGSLSDFDVHGNLLAACGFSSRLTGLACDRFLKVYDLRMMRAITPLQVHVDPAFLRFIPTYTSRLAIISQSGQCQFCEPTGLANPADIFHVNPVGPLLMTFDVSASKQALAFGDSEGCVHLWTDSPEPSFNPYSRETEFALPCLVDSLPPLDWSQDLLPLSLIPVPLTTDTLLSDWPAANSAPAPRRAPPVDAEILRTMKKVGFIGYAPNPRTRLRNQIPYRLKESDSEFDSFSQVTESPVGREEEPHLHMVSKKYRKVTIKYSKLGLEDFDFKHYNKTLFAGLEPHIPNAYCNCMIQVLYFLEPVRCLIQNHLCQKEFCLACELGFLFHMLDLSRGDPCQGNNFLRAFRTIPEASALGLILADSDEASGKGNLARLIQRWNRFILTQLHQDMQELEIPQAYRGAGGSSFCSSGDSVIGQLFSCEMENCSLCRCGSETVRASSTLLFTLSYPDGSKSDKTGKNYDFAQVLKRSICLDQNTQAWCDTCEKYQPTIQTRNIRHLPDILVINCEVNSSKEADFWRMQAEVAFKMAVKKHGGEISKNKEFALADWKELGSPEGVLVCPSIEELKNVWLPFSIRMKMTKNKGLDVCNWTDGDEMQWGPARAEEEHGVYVYDLMATVVHILDSRTGGSLVAHIKVGETYHQRKEGVTHQQWYLFNDFLIEPIDKHEAVQFDMNWKVPAILYYVKRNLNSRYNLNIKNPIEASVLLAEASLARKQRKTHTTFIPLMLNEMPQIGDLVGLDAEFVTLNEEEAELRSDGTKSTIKPSQMSVARITCVRGQGPNEGIPFIDDYISTQEQVVDYLTQYSGIKPGDLDAKISSKHLTTLKSTYLKLRFLIDIGVKFVGHGLQKDFRVINLMVPKDQVLDTVYLFHMPRKRMISLRFLAWYFLDLKIQGETHDSIEDARTALQLYRKYLELSKNGTEPESFHKVLKGLYEKGRKMDWKVPEPEGQTSPKNAAVFSSVLAL
- binding [3]: no binding

B2: His-tagged YTHDF2-C (YTHDF2-401-579) (domain or fragment, UniProt Q9Y5A9 401-579)
chain: KDFDWNLKHGRVFIIKSYSEDDIHRSIKYNIWCSTEHGNKRLDAAYRSMNGKGPVYLLFSVNGSGHFCGVAEMKSAVDYNTCAGVWSQDKWKGRFDVRWIFVKDVPNSQLRHIRLENNENKPVTNSRDTQEVPLEKAKQVLKIIASYKHTTSIFDDFSHYEKRQEEEESVKKERQGRGK
- binding [4]: no binding (tested: 40 pmol of each protein)

B3: His-tagged YTHDF2 aa 1-100 (domain or fragment, UniProt Q9Y5A9 1-100)
chain: MSASSLLEQRPKGQGNKVQNGSVHQKDGLNDDDFEPYLSPQARPNNAYTAMSDSYLPSYYSPSIGFSYSLGEAAWSTGGDTAMPYLTSYGQLSNGEPHFL
- binding [4]: no binding (tested: 40 pmol of each protein)

B4: His-tagged YTHDF2 aa 201-300 (domain or fragment, UniProt Q9Y5A9 201-300)
chain: SNVPKVVGSAVGSGSITSNIVASNSLPPATIAPPKPASWADIASKPAKQQPKLKTKNGIAGSSLPPPPIKHNMDIGTWDNKGPVAKAPSQALVQNIGQPT
- binding [4]: no binding (tested: 40 pmol of each protein)

B5: His-tagged YTHDF2 aa 301-400 (domain or fragment, UniProt Q9Y5A9 301-400)
chain: QGSPQPVGQQANNSPPVAQASVGQQTQPLPPPPPQPAQLSVQQQAAQPTRWVAPRNRGSGFGHNGVDGNGVGQSQAGSGSTPSEPHPVLEKLRSINNYNP
- binding [4]: no binding (tested: 40 pmol of each protein)

B6: V5-tagged PAN3, Q58A45 1-887 (protein)
chain: MNSGGGLPPPSAAASPSSSSLAAAVAVVAPPGVGGVPGGAAVGVKLKYCRYYAKDKTCFYGEECQFLHEDPAAGAAPGLGLHSNSVPLALAGAPVAGFPPGAVAGGGAGPPPGPKKPDLGDPGTGAAAGGGGSSGGLDGPRLAIPGMDGGALTDTSLTDSYFSTSFIGVNGFGSPVETKYPLMQRMTNSSSSPSLLNDSAKPYSAHDPLTSPASSLFNDFGALNISQRRKPRKYRLGMLEERLVPMGSKARKAKNPIGCLADRCKSGVPINMVWWNRVTENNLQTPNPTASEFIPKGGSTSRLSNVSQSNMSAFSQVFSHPSMGSPATAGLAPGMSLSAGSSPLHSPKITPHTSPAPRRRSHTPNPASYMVPSSASTSVNNPVSQTPSSGQVIQKETVGGTTYFYTDTTPAPLTGMVFPNYHIYPPTAPHVAYMQPKANAPSFFMADELRQELINRHLITMAQIDQADMPAVPTEVDSYHSLFPLEPLPPPNRIQKSSNFGYITSCYKAVNSKDDLPYCLRRIHGFRLVNTKCMVLVDMWKKIQHSNIVTLREVFTTKAFAEPSLVFAYDFHAGGETMMSRHFNDPNADAYFTKRKWGQHEGPLPRQHAGLLPESLIWAYIVQLSSALRTIHTAGLACRVMDPTKILITGKTRLRVNCVGVFDVLTFDNSQNNNPLALMAQYQQADLISLGKVVLALACNSLAGIQRENLQKAMELVTINYSSDLKNLILYLLTDQNRMRSVNDIMPMIGARFYTQLDAAQMRNDVIEEDLAKEVQNGRLFRLLAKLGTINERPEFQKDPTWSETGDRYLLKLFRDHLFHQVTEAGAPWIDLSHIISCLNKLDAGVPEKISLISRDEKSVLVVTYSDLKRCFENTFQELIAAANGQL
- binding [3]: no binding

B7: V5-tagged PARN (enzyme, UniProt O95453 1-639)
chain: MEIIRSNFKSNLHKVYQAIEEADFFAIDGEFSGISDGPSVSALTNGFDTPEERYQKLKKHSMDFLLFQFGLCTFKYDYTDSKYITKSFNFYVFPKPFNRSSPDVKFVCQSSSIDFLASQGFDFNKVFRNGIPYLNQEEERQLREQYDEKRSQANGAGALSYVSPNTSKCPVTIPEDQKKFIDQVVEKIEDLLQSEENKNLDLEPCTGFQRKLIYQTLSWKYPKGIHVETLETEKKERYIVISKVDEEERKRREQQKHAKEQEELNDAVGFSRVIHAIANSGKLVIGHNMLLDVMHTVHQFYCPLPADLSEFKEMTTCVFPRLLDTKLMASTQPFKDIINNTSLAELEKRLKETPFNPPKVESAEGFPSYDTASEQLHEAGYDAYITGLCFISMANYLGSFLSPPKIHVSARSKLIEPFFNKLFLMRVMDIPYLNLEGPDLQPKRDHVLHVTFPKEWKTSDLYQLFSAFGNIQISWIDDTSAFVSLSQPEQVKIAVNTSKYAESYRIQTYAEYMGRKQEEKQIKRKWTEDSWKEADSKRLNPQCIPYTLQNHYYRNNSFTAPSTVGKRNLSPSQEEAGLEDGVSGEISDTELEQTDSCAEPLSEGRKKAKKLKRMKKELSPAGSISKNSPATLFEVPDTW
- binding [2]: no binding

B8: V5-tagged DCP1A, Q9NPI6 1-582 (protein)
chain: MEALSRAGQEMSLAALKQHDPYITSIADLTGQVALYTFCPKANQWEKTDIEGTLFVYRRSASPYHGFTIVNRLNMHNLVEPVNKDLEFQLHEPFLLYRNASLSIYSIWFYDKNDCHRIAKLMADVVEEETRRSQQAARDKQSPSQANGCSDHRPIDILEMLSRAKDEYERNQMGDSNISSPGLQPSTQLSNLGSTETLEEMPSGSQDKSAPSGHKHLTVEELFGTSLPKEQPAVVGLDSEEMERLPGDASQKEPNSFLPFPFEQLGGAPQSETLGVPSAAHHSVQPEITTPVLITPASITQSNEKHAPTYTIPLSPVLSPTLPAEAPTAQVPPSLPRNSTMMQAVKTTPRQRSPLLNQPVPELSHASLIANQSPFRAPLNVTNTAGTSLPSVDLLQKLRLTPQHDQIQTQPLGKGAMVASFSPAAGQLATPESFIEPPSKTAAARVAASASLSNMVLAPLQSMQQNQDPEVFVQPKVLSSAIPVAGAPLVTATTTAVSSVLLAPSVFQQTVTRSSDLERKASSPSPLTIGTPESQRKPSIILSKSQLQDTLIHLIKNDSSFLSTLHEVYLQVLTKNKDNHNL
- binding [3]: no binding
